The results in this text go back to the supplement of paper PMC12217912.

The labels stand for the following.
B1: TEV protease; numbered along this chain (parent)
chain: MGESLFKGPRDYNPISSSICHLTNESDGHTTSLYGIGFGPFIITNKHLFRRNNGTLVVQSLHGVFKVKDTTTLQQHLVDGRDMIIIRMPKDFPPFPQKLKFREPQREERICLVTTNFQTKSMSSMVSDTSCTFPSGDGIFWKHWIQTKDGQCGSPLVSTRDGFIVGIHSASNFTNTNNYFTSVPKNFMELLTNQEAQQWVSGWRLNADSVLWGGHKVFMVKPEEPFQPVKEATQL

The list shows a part of the results. Sequences were assembled here from the parent chain. Values near 0.05 are background.

This assay covers variants of B1. In words: raw area under fraction-flipped curve 0-4 h after induction (AUC4h, not background-subtracted), DNA-recorder readout of cleavage of the substrate (dimensionless); higher = more cleavage of the substrate by the protease variant. As to conditions: temperature: 34 °C; time window: 0-4 h after rhamnose induction. Here is the method: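 In vivo DNA recorder in E. coli TOP10(DE3) ΔrhaA at 34 °C. Each TEVp single-site mutant (parent TEVp 0) is paired with a single-site variant of the 7-mer TEVs (canonical ENLYFQ|S). The substrate sits between flexible linkers in a Bxb1-sfGFP-TEVs-SsrA fusion, so cleavage stabilises Bxb1 and speeds flipping of a recombination array, read by NGS. The value is the raw area under the fraction-flipped curve over 0-4 h after rhamnose induction (AUC4h), with ≥20 reads per time point. It is not background-subtracted; inactive controls average about 0.047.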
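Further: Bxb1 expression induced with 0.2% (w/v) L-rhamnose at OD600 near 0.5, cultures sampled hourly, flipped fraction per protease–substrate barcode pair counted by paired-end Illumina sequencing.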

Regarding MGESLFKGPRDYNPISSSICHLTNESDGHTTSLYGIGFGPFIITNKHLFRRNNGTLVVQSLHGVFKVKDTTTLQQHLVDGRDMIIIRMPKDFPPFPQKLKFREPQREERICLVTTNFQTKSMSSMVSDTSCTFPSGDGIFWKHWIQTKDGQCGSPLVSTRDGFIVRIHSASNFTNTNNYFTSVPKNFMELLTNQEAQQWVSGWRLNADSVLWGGHKVFMVKPEEPFQPVKEATQL [G166R], the “area with substrate ENLYAQS” value came to 0.0528, the “area with substrate ENLYDQS” value stood at 0.0478, the “area with substrate ENLYEQS” value turned out to be 0.0468 and the “area with substrate ENLYGQS” value was found to be 0.0435. Further, the “area with substrate ENLYHQS” value came out at 0.0491, the “area with substrate ENLYIQS” value came out at 0.0476, the “area with substrate ENLYKQS” value came out at 0.039 and the “area with substrate ENLYMQS” value stood at 0.0521. In addition, the “area with substrate ENLYNQS” value was found to be 0.0534, the “area with substrate ENLYPQS” value is 0.049, the “area with substrate ENLYQQS” value stood at 0.0568 and the “area with substrate ENLYRQS” value amounted to 0.0524. Moreover, the “area with substrate ENLYSQS” value amounted to 0.0475, the “area with substrate ENLYTQS” value was 0.0452 and the “area with substrate ENLYVQS” value came to 0.058.
As for MGESLFKGPRDYNPISSSICHLTNESDGHTTSLYGIGFGPFIITNKHLFRRNNGTLVVQSLHGVFKVKDTTTLQQHLVDGRDMIIIRMPKDFPPFPQKLKFREPQREERICLVTTNFQTKSMSSMVSDTSCTFPSGDGIFWKHWIQTKDGQCGSPLVSTRDGFIVVIHSASNFTNTNNYFTSVPKNFMELLTNQEAQQWVSGWRLNADSVLWGGHKVFMVKPEEPFQPVKEATQL [G166V], the “area with substrate ENLYAQS” value came to 0.0412, the “area with substrate ENLYCQS” value was 0.0556, the “area with substrate ENLYDQS” value was found to be 0.0626 and the “area with substrate ENLYEQS” value came out at 0.0459. Also, the “area with substrate ENLYGQS” value was 0.0406, the “area with substrate ENLYHQS” value is 0.0467, the “area with substrate ENLYKQS” value worked out at 0.0458 and the “area with substrate ENLYLQS” value turned out to be 0.0376. The “area with substrate ENLYMQS” value stood at 0.0522, the “area with substrate ENLYNQS” value came to 0.0504, the “area with substrate ENLYRQS” value came out at 0.0611 and the “area with substrate ENLYSQS” value came out at 0.051. The “area with substrate ENLYTQS” value amounted to 0.058, the “area with substrate ENLYVQS” value is 0.042 and the “area with substrate ENLYWQS” value was found to be 0.036.
On to MGESLFKGPRDYNPISSSICHLTNESDGHTTSLYGIGFGPFIITNKHLFRRNNGTLVVQSLHGVFKVKDTTTLQQHLVDGRDMIIIRMPKDFPPFPQKLKFREPQREERICLVTTNFQTKSMSSMVSDTSCTFPSGDGIFWKHWIQTKDGQCGSPLVSTRDGFIVGIHSASNFTNTNNYFMSVPKNFMELLTNQEAQQWVSGWRLNADSVLWGGHKVFMVKPEEPFQPVKEATQL [T181M], for which the “area with substrate ENLYAQS” value was found to be 0.0648, the “area with substrate ENLYCQS” value was 0.0672, the “area with substrate ENLYDQS” value was determined as 0.0624 and the “area with substrate ENLYEQS” value is 0.0658. Also, the “area with substrate ENLYGQS” value is 0.0573, the “area with substrate ENLYHQS” value came out at 0.0718, the “area with substrate ENLYIQS” value worked out at 0.0779 and the “area with substrate ENLYKQS” value worked out at 0.0682. Moreover, the “area with substrate ENLYLQS” value was found to be 0.0604, the “area with substrate ENLYMQS” value was 0.0719, the “area with substrate ENLYNQS” value was found to be 0.0616 and the “area with substrate ENLYPQS” value was 0.0829. In addition, the “area with substrate ENLYQQS” value worked out at 0.0716, the “area with substrate ENLYRQS” value was 0.0598, the “area with substrate ENLYSQS” value is 0.0643 and the “area with substrate ENLYTQS” value is 0.0582. For the same variant, the “area with substrate ENLYVQS” value amounted to 0.0725.
For the variant MGESLFKGPRDYNPISSSICHLTNESDGHTTSLYGIGFGPFIITNKHLFRRNNGTLVVQSLHGVFKVKDTTTLQQHLVDGRDMIIIRMPKDFPPFPQKLKFREPQREERICLVTTNFQTKSMSSMVSDTSCTFPSGDGIFWKHWIQTKDGQCGSPLVSTRDGFIVGIHSASNFTNTHNYFTSVPKNFMELLTNQEAQQWVSGWRLNADSVLWGGHKVFMVKPEEPFQPVKEATQL [N177H], the “area with substrate ENLYAQS” value came to 0.0763, the “area with substrate ENLYDQS” value was found to be 0.0345, the “area with substrate ENLYEQS” value is 0.0621 and the “area with substrate ENLYIQS” value is 0.0812. Moreover, the “area with substrate ENLYKQS” value stood at 0.0634, the “area with substrate ENLYMQS” value amounted to 0.0509, the “area with substrate ENLYNQS” value stood at 0.0498 and the “area with substrate ENLYPQS” value came out at 0.066. Also, the “area with substrate ENLYQQS” value amounted to 0.0546, the “area with substrate ENLYRQS” value worked out at 0.0649, the “area with substrate ENLYTQS” value amounted to 0.0772 and the “area with substrate ENLYWQS” value turned out to be 0.105.
Regarding MGESLFKGPRDYNPISSSICHLTNESDGHTTSLYGIGFGPFIITNKHLFRRNNGTLVVQSLHGVFKVKDTTTLQQHLVDGRDMIIIRMPKDFPPFPQKLKFREPQREERICLVTTNFQTKSMSSMVSDTSCTFPSGDGIFWKHWIQTKDGQCGSPLVSTRDGFIVGIHSASNFTNTANYFTSVPKNFMELLTNQEAQQWVSGWRLNADSVLWGGHKVFMVKPEEPFQPVKEATQL [N177A], the “area with substrate ENLYAQS” value was determined as 0.0768, the “area with substrate ENLYDQS” value was 0.0612, the “area with substrate ENLYEQS” value was determined as 0.0635 and the “area with substrate ENLYGQS” value was 0.0836. Moreover, the “area with substrate ENLYHQS” value is 0.0733, the “area with substrate ENLYIQS” value is 0.12, the “area with substrate ENLYKQS” value came to 0.0935 and the “area with substrate ENLYMQS” value was determined as 0.0842. For the same variant, the “area with substrate ENLYNQS” value was 0.0709, the “area with substrate ENLYPQS” value worked out at 0.0775, the “area with substrate ENLYRQS” value turned out to be 0.0573 and the “area with substrate ENLYSQS” value was 0.088. In addition, the “area with substrate ENLYTQS” value is 0.0887, the “area with substrate ENLYVQS” value turned out to be 0.13, the “area with substrate ENLYWQS” value came to 0.0722 and the “area with substrate ENLYYQS” value is 0.0617.
Regarding MGESLFKGPRDYNPISSSICHLTNESDGHTTSLYGIGFGPFIITNKHLFRRNNGTLVVQSLHGVFKVKDTTTLQQHLVDGRDMIIIRMPKDFPPFPQKLKFREPQREERICLVTTNFQTKSMSSMVSDTSCTFPSGDGIFWKHWIQTKDGQCGSPLVSTRDGFIVGIHSASNFTNYNNYFTSVPKNFMELLTNQEAQQWVSGWRLNADSVLWGGHKVFMVKPEEPFQPVKEATQL [T176Y], the “area with substrate ENLYAQS” value was found to be 0.0804, the “area with substrate ENLYDQS” value stood at 0.0622, the “area with substrate ENLYEQS” value is 0.0591 and the “area with substrate ENLYGQS” value was determined as 0.0705. Further, the “area with substrate ENLYHQS” value stood at 0.0612, the “area with substrate ENLYIQS” value was 0.0714, the “area with substrate ENLYKQS” value turned out to be 0.0625 and the “area with substrate ENLYLQS” value was found to be 0.0586. The “area with substrate ENLYMQS” value came out at 0.0519, the “area with substrate ENLYNQS” value worked out at 0.05, the “area with substrate ENLYPQS” value amounted to 0.0472 and the “area with substrate ENLYSQS” value is 0.0473. The “area with substrate ENLYTQS” value stood at 0.0581, the “area with substrate ENLYWQS” value was 0.0547 and the “area with substrate ENLYYQS” value worked out at 0.0621.
With MGESLFKGPRDYNPISSSICHLTNESDGHTTSLYGIGFGPFIITNKHLFRRNNGTLVVQSLHGVFKVKDTTTLQQHLVDGRDMIIIRMPKDFPPFPQKLKFREPQREERICLVTTNFQTKSMSSMVSDTSCTFPSGDGIFWKHWIQTKDGQCGSPLVSTRDGFIVGIHSASNDTNTNNYFTSVPKNFMELLTNQEAQQWVSGWRLNADSVLWGGHKVFMVKPEEPFQPVKEATQL [F173D], the “area with substrate ENLYAQS” value came to 0.0734, the “area with substrate ENLYDQS” value worked out at 0.0706, the “area with substrate ENLYEQS” value came to 0.0722 and the “area with substrate ENLYGQS” value came out at 0.0608. The “area with substrate ENLYHQS” value was 0.0615, the “area with substrate ENLYIQS” value is 0.0896, the “area with substrate ENLYKQS” value came to 0.0652 and the “area with substrate ENLYLQS” value was found to be 0.131. The “area with substrate ENLYMQS” value came out at 0.06, the “area with substrate ENLYNQS” value was found to be 0.069, the “area with substrate ENLYPQS” value came to 0.0637 and the “area with substrate ENLYQQS” value worked out at 0.0777. The “area with substrate ENLYRQS” value was 0.0638, the “area with substrate ENLYSQS” value turned out to be 0.0614, the “area with substrate ENLYTQS” value worked out at 0.0709 and the “area with substrate ENLYVQS” value came to 0.104. Further, the “area with substrate ENLYWQS” value came out at 0.069.
MGESLFKGPRDYNPISSSICHLTNESDGHTTSLYGIGFGPFIITNKHLFRRNNGTLVVQSLHGVFKVKDTTTLQQHLVDGRDMIIIRMPKDFPPFPQKLKFREPQREERICLVTTNFQTKSMSSMVSDTSCTFPSGDGIFWKHWIQTKDGQCGSPLVSTRDGFIVGIHTASNFTNTNNYFTSVPKNFMELLTNQEAQQWVSGWRLNADSVLWGGHKVFMVKPEEPFQPVKEATQL [S169T]: the “area with substrate ENLYAQS” value stood at 0.0873, the “area with substrate ENLYCQS” value came to 0.0875, the “area with substrate ENLYDQS” value was 0.0511 and the “area with substrate ENLYEQS” value worked out at 0.077. In addition, the “area with substrate ENLYGQS” value came to 0.0647, the “area with substrate ENLYHQS” value worked out at 0.0691, the “area with substrate ENLYIQS” value came to 0.137 and the “area with substrate ENLYKQS” value stood at 0.0569. The “area with substrate ENLYMQS” value came out at 0.085, the “area with substrate ENLYNQS” value turned out to be 0.0856, the “area with substrate ENLYPQS” value is 0.0744 and the “area with substrate ENLYRQS” value came to 0.0578. The “area with substrate ENLYSQS” value turned out to be 0.0826, the “area with substrate ENLYTQS” value is 0.0861, the “area with substrate ENLYVQS” value was 0.152 and the “area with substrate ENLYWQS” value is 0.0676. Also, the “area with substrate ENLYYQS” value came to 0.0628.
